PubChem BioAssay AID652104 (National Center for Advancing Translational Sciences (NCATS), 2013)
In all, about 410,000 compounds went through this assay and about 7,200 (1.8%) were called active. This list was built around the results that the source calls inconclusive (neither active nor inactive); the mix of calls is not that of the screen. The call rests on the fitted dose curve; in most records, active means well fitted activation curve with a large enough effect; inconclusive means small, poorly fitted or top-dose-only effect, or another doubt; inactive means no such curve, though single readings can be large or run the other way. Where the call is inconclusive, the potency comes from a doubtful curve fit.

Test: qHTS of TDP-43 Inhibitors; further: nearly all actives have a fitted effect of over 50% in size; on growth rescue (activation): % of control where 0% means no effect
Conditions: TDP-43 expressing yeast growth rescue, BacTiter-Glo, 24 h; growth rescue (activation): at 46.1 µM (top of the series) unless noted
How it was run: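 Galactose-induced TDP-43 yeast, OD600=0.02, compound pinned; 24 hr, 30 deg C; BacTiter-Glo luminescence for growth. Inhibitors of TDP-43 toxicity read as activators.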
Potency means the concentration at half of the fitted maximal effect; tags describe the fitted curve by direction and shape.

Potency, active:
CCCc1ccc(-c2csc(NC(=O)C3=COCCO3)n2)cc1 15.8 µM
CCc1ccc2oc(C(=O)N3CCN(c4ccccc4OC)CC3)cc(=O)c2c1 20 µM
CCCCOc1ccc(CNC(=O)CN2CCSc3ccccc32)cc1 35.5 µM

Potency, inconclusive:
COc1cc(OC)c(OC)cc1CN1CCN(C(=O)CC(C)C)CC1 1.12 µM [activator, partial curve]
CCc1ccc(NC(=O)c2cccnc2)cc1 12.6 µM [activator, partial curve]
CC1CCN(c2ncnc3c2cnn3-c2ccc(F)cc2)CC1 17.8 µM [activator, partial curve]
COc1ccc(-c2cc3nc(C)cc(N4CCN(C(=O)c5ccoc5)CC4)n3n2)cc1 8.91 µM [activator, full curve]
Cc1cccc(C)c1OCc1nnc(SCC(=O)NCCc2ccccc2)o1 11.2 µM [activator, partial curve]
Cc1ccccc1-c1cc2nc(Nc3ccc(F)cc3)n(C)c(=O)c2s1 35.5 µM [activator, single point]
CCNC(=S)Nc1cc2oc3ccccc3c2cc1OC 20 µM [activator, single point]
Cc1c(C(=O)OCc2nc3ccsc3c(=O)[nH]2)oc2ccccc12 8.91 µM [activator, partial curve]
Clc1ccccc1Cn1nnc2c(N3CCOCC3)nc(C3CC3)nc21 10 µM [activator, partial curve]
COc1ccc(C(=O)/C=C/c2ccccc2)c(O)c1 11.2 µM [activator, partial curve]
Cc1cccc(OCCCC(=O)NC2CCCCC2)c1 10 µM [activator, partial curve]
Cc1cccc(NC(=S)NCc2cccs2)c1 35.5 µM [activator, single point]
Cc1nc(Cl)nc(N(C)c2ccccc2)c1[N+](=O)[O-] 17.8 µM [activator, single point]
Cn1c2ccccc2c2c(C(=O)N3CCN(c4ccccc4)CC3)cn(C3CCCC3)c(=O)c21 35.5 µM [activator, single point]
Cc1ccc2cc(C#N)c(N3CCCN(C(=O)C4CCCO4)CC3)nc2c1 (configuration not stated) 10 µM [activator, partial curve]
CC(C)Oc1cccc(C(=O)NC(=S)Nc2ccccc2N2CCOCC2)c1 20 µM [activator, partial curve]
Cc1ccc(CCc2nnc(SCC(=O)Nc3cc(Cl)ccc3Cl)n2-c2ccccc2)o1 35.5 µM [activator, single point]
COc1cccc(C(=O)NC2CC3CCCC(C2)N3S(=O)(=O)c2ccccc2)c1 (configuration not stated) 31.6 µM [activator, single point]
Cc1nn(-c2ccccn2)c2c1C(=O)CC(C)(C)C2Br (configuration not stated) 15.8 µM [activator, single point]
CSc1n[nH]c(-c2sccc2OCc2ccc(C)cc2)n1 20 µM [activator, single point]
Cc1ccccc1-c1n[nH]c(=S)n1/N=C/C=C/c1ccco1 10 µM [activator, partial curve]
Cc1cc(/C=C/C(=O)O)c(C)n1-c1ccc(Cl)cc1 35.5 µM [activator, single point]
Cc1ccc(NC(=O)CCn2c(=O)c3cccn3c3ccccc32)c(Cl)c1 8.91 µM [activator, partial curve]
CC(C)CCOc1ccc(C2=NNC(=O)CC2)cc1 12.6 µM [activator, single point]
CC(C(=O)O)n1c(-c2ccn[nH]2)n[nH]c1=S (configuration not stated) 17.8 µM [activator, single point]
CCC(C(=O)N1CCN(c2cccc(C)c2C)CC1)n1nc(C)c2sc3ccccc3c2c1=O (configuration not stated) 2.82 µM [activator, full curve]
Cc1noc(C)c1COC(=O)c1cnc(Cl)c(Cl)c1 11.2 µM [activator, partial curve]
O=C(Nc1ccc(Cl)cc1)C1CC=CCC1C(=O)OCC(F)(F)C(F)F (configuration not stated) 14.1 µM [activator, partial curve]
CC1=C(C(=O)N(C)C)CC(CC(=O)NCCCCc2ccccc2)C(=O)N1Cc1ccc(C(C)(C)C)cc1 (configuration not stated) 35.5 µM [activator, single point]
COc1ccc2c(c1)c1c(c(=O)n(-c3ccc(OC)c(OC)c3)c(=O)n1Cc1ccccc1C)n2C 14.1 µM [activator, partial curve]
CC(=O)c1sc(-c2ccc(Cl)cc2)cc1N 15.8 µM [activator, single point]
Oc1ccccc1C1Nc2cccc3cccc(c23)N1 0.316 µM [activator, full curve, poor fit]
CC1(C(=O)N2Cc3ccccc3C2)CCN1C(=O)C1(c2ccc(Cl)cc2)CC1 (configuration not stated) 35.5 µM [activator, single point]
Cc1cc(C)nc(SCC(=O)Nc2ncc(Cc3cccc(Cl)c3Cl)s2)n1 1.41 µM [activator, full curve, poor fit]
CCCc1cc(=O)oc2c(C)c(OCC(=O)N3CCC(C(N)=O)CC3)ccc12 0.562 µM [activator, full curve, poor fit]

Growth rescue (activation), inactive:
Cc1ccccc1Cn1c(SCc2ccc(C(=O)NC(C)c3ccccc3)cc2)nc2ccncc21 (configuration not stated) 1.49%
CCOc1ccc2nc(SC3CC(=O)N(c4ccccc4)C3=O)sc2c1 (configuration not stated) -5.68%
COc1ccc(NC(=O)c2cc(S(=O)(=O)N3CCCCC3)ccc2C)cc1S(=O)(=O)N1CCOCC1 -14.9%
Cc1ccc2c(c1)c1c(c(=O)n(-c3ccccc3)c(=O)n1CC(=O)N1CCCC1)n2C 6.8%
